From the GPR68 mutational scans of Howard et al. (2025) come the findings set out here.

The labels stand for the following.
B1: GPR68, Q15743 (parent)
chain: MGNITADNSSMSCTIDHTIHQTLAPVVYVTVLVVGFPANCLSLYFGYLQIKARNELGVYLCNLTVADLFYICSLPFWLQYVLQHDNWSHGDLSCQVCGILLYENIYISVGFLCCISVDRYLAVAHPFRFHQFRTLKAAVGVSVVIWAKELLTSIYFLMHEEVIEDENQHRVCFEHYPIQAWQRAINYYRFLVGFLFPICLLLASYQGILRAVRRSHGTQKSRKDQIQRLVLSTVVIFLACFLPYHVLLLVRSVWEASCDFAKGVFNAYHFSLLLTSFNCVADPVLYCFVSETTHRDLARLRGACLAFLTCSRTGRAREAYPLGAPEASGKSGAQGEEPELLTKLHPAFQTPNSPGSGGFPTGRLA

Scores with a large standard error are left out. The source holds two more conditions with little spread; they are left out. In variant names, del marks residues removed and ins residues inserted between the two positions. For part of these data: The concentration of ogerin is not given here.

In data set [1] the parent is B1. Briefly: cAMP reporter score (Enrich2 score, wild type = 0); higher = more signal; HEK293T, FACS bins.
Variants of B1 are the subject of data set [2]. Briefly: surface expression score (Enrich2 score, wild type = 0); higher = more signal; HEK293T, FACS bins.

With G193_L195del, the cAMP reporter score in data set [1] (pH 5.5) is -1.23; in data set [1] (pH 6), -1.1; in data set [1] (pH 6, modulator: ogerin), -2.12; in data set [1] (pH 6.5, modulator: ogerin), -1.45. Also, the surface expression score in data set [2] is -2.91.
Turning to MGNITADNSSMSCTIDHTIHQTLAPVVYVTVLVVGFPANCLSLYFGYLQIKARNELGVYLCNLTVADLFYICSLPFWLQYVLQHDNWSHGDLSCQVCGILLYENIYISVGFLCCISVDRYLAVAHPFRFHQFRTLKAAVGVSVVIWAKELLTSIYFLMHEEVIEDENQHRVCFEHYPIQAWQRAINYYRFLVGCLFPICLLLASYQGILRAVRRSHGTQKSRKDQIQRLVLSTVVIFLACFLPYHVLLLVRSVWEASCDFAKGVFNAYHFSLLLTSFNCVADPVLYCFVSETTHRDLARLRGACLAFLTCSRTGRAREAYPLGAPEASGKSGAQGEEPELLTKLHPAFQTPNSPGSGGFPTGRLA [F194C], the cAMP reporter score in data set [1] (pH 5.5) was found to be 1.73; in data set [1] (pH 6, modulator: ogerin), 0.308.
In the case of MGNITADNSSMSCTIDHTIHQTLAPVVYVTVLVVGFPANCLSLYFGYLQIKARNELGVYLCNLTVADLFYICSLPFWLQYVLQHDNWSHGDLSCQVCGILLYENIYISVGFLCCISVDRYLAVAHPFRFHQFRTLKAAVGVSVVIWAKELLTSIYFLMHEEVIEDENQHRVCFEHYPIQAWQRAINYYRFLVGALFPICLLLASYQGILRAVRRSHGTQKSRKDQIQRLVLSTVVIFLACFLPYHVLLLVRSVWEASCDFAKGVFNAYHFSLLLTSFNCVADPVLYCFVSETTHRDLARLRGACLAFLTCSRTGRAREAYPLGAPEASGKSGAQGEEPELLTKLHPAFQTPNSPGSGGFPTGRLA [F194A], the cAMP reporter score in data set [1] (pH 5.5) is 0.422; in data set [1] (pH 6), 0.204; in data set [1] (pH 6, modulator: ogerin), -0.003; in data set [1] (pH 6.5, modulator: ogerin) it was -0.444. In data set [2], the surface expression score is -0.752.
For MGNITADNSSMSCTIDHTIHQTLAPVVYVTVLVVGFPANCLSLYFGYLQIKARNELGVYLCNLTVADLFYICSLPFWLQYVLQHDNWSHGDLSCQVCGILLYENIYISVGFLCCISVDRYLAVAHPFRFHQFRTLKAAVGVSVVIWAKELLTSIYFLMHEEVIEDENQHRVCFEHYPIQAWQRAINYYRFLVYFLFPICLLLASYQGILRAVRRSHGTQKSRKDQIQRLVLSTVVIFLACFLPYHVLLLVRSVWEASCDFAKGVFNAYHFSLLLTSFNCVADPVLYCFVSETTHRDLARLRGACLAFLTCSRTGRAREAYPLGAPEASGKSGAQGEEPELLTKLHPAFQTPNSPGSGGFPTGRLA [G193Y], the cAMP reporter score in data set [1] (pH 5.5) was -0.864; in data set [1] (pH 6), 1.95; in data set [1] (pH 6, modulator: ogerin), -1.27. Further, the surface expression score in data set [2] is -0.678.
MGNITADNSSMSCTIDHTIHQTLAPVVYVTVLVVGFPANCLSLYFGYLQIKARNELGVYLCNLTVADLFYICSLPFWLQYVLQHDNWSHGDLSCQVCGILLYENIYISVGFLCCISVDRYLAVAHPFRFHQFRTLKAAVGVSVVIWAKELLTSIYFLMHEEVIEDENQHRVCFEHYPIQAWQRAINYYRFLVWFLFPICLLLASYQGILRAVRRSHGTQKSRKDQIQRLVLSTVVIFLACFLPYHVLLLVRSVWEASCDFAKGVFNAYHFSLLLTSFNCVADPVLYCFVSETTHRDLARLRGACLAFLTCSRTGRAREAYPLGAPEASGKSGAQGEEPELLTKLHPAFQTPNSPGSGGFPTGRLA [G193W]: the cAMP reporter score in data set [1] (pH 5.5) was -1.6; in data set [1] (pH 6), -0.701; in data set [1] (pH 6, modulator: ogerin), -1.63; in data set [1] (pH 6.5, modulator: ogerin) it was -1.84. Moreover, the surface expression score in data set [2] was -2.19.
